Experimental findings from the supplement of paper PMC11383711 are described below.

The other results are listed elsewhere or left out. Binding of human antibodies (heavy:light variable regions, tested as scFv in one mRNA-display pool) to influenza hemagglutinin, with or without the stem antibody CR9114 bound first. Score = (mean enrichment − median) / interquartile range of that screen; higher = more enriched, 0 = typical non-binder. Active = above the paper's cut-off per screen: stems 28; unblocked H1 Solomon Islands 5, H1 Michigan 3, H3 5, H5 19, H7 2.85, both B 5; blocked 9, 7, H5 10, H7 10, B Phuket 10, B Lee 11.5. Scores are scaled within each screen and are no affinities; replicates correlate at about 0.6 to 0.9, and antibodies rare in the pool are noisier.

First the molecules themselves.
B1: AG11-2B01 (protein)
chain 1: VQLQESGPGLVRPSETLSLTCSLSGGSFSEATDYWGWVRQAPGKGLEWIGSMSPSGITYISPSLTSRVTMSVDTSKKQFSLRLSFVVAADAAMYYCIKDRDIVSRGGFDLWGQGTLVTVSS
chain 2: DIQMTQSPSSLSASVGDAVTITCRASESISIFLNWYQHKPGKAPKLLIYLTSTLQSGVPSRFSGSGSGTDFTLTISGLQPEDFATYYCQQSYSHLPYTFGQGTKVEIK
B2: 2-12C (protein)
chain 1: EVQLVQSGAEVKKPGESLKISCKGSGNGFTTYWIGWVRQVPGKGLEWMGIIYPDDSDTRYSPSFQGQVSISADKSISTAFLQWSSLKASDTAMYFCARLGDVETAMVGQDAFHIWGQGTMVTVSS
chain 2: EIVLTQSPGTLSLSPGDRATLSCRASQSVSSSFLAWYQQKPGQAPRLLMYGASRRATGIPDRFSGSGSGTDFTLTISRLEPEDFAVYYCQQYDSSPFTFGGGTKVEIK
B3: antibody 1F05 (protein)
chain 1: VQLVESGGGLVKPGGSLRLSCAGSGFIFRTYFMSWVRQAPGKGLEWVASINNNGLYIYYSESVEGRFTISRDNAENSVYLQMDSLRADDTALYYCSRGPWEDYDSNTYRTFDYWGQGTLVTVSS
chain 2: DIQMTQSPSTLSASLGARVTISCRASQNIAPWLAWYQQKPGEAPKLLIYKTSNLESGVPSRFSGSGSGTEFTLAISSLQPDDFATYYCQQYNSYPWTFGQGTKVEIK
B4: D1-H1-17-H3-14 (protein)
chain 1: QVQLQESGPGLVKPSESLSLTCSVSGGSVSSNLHYWSWIRQLPGKGLEWIGYISYTGSTKYNPSLNGRVTLSIDASKNQFSLELSSVTAADTAVYYCARDFFEKLIADDLNAFDIWGQGTMVTVSG
chain 2: DIRVTQSPSSLSASVGDRVTITCRASQSISRSLNWYQQRPGKAPKFLIYAASNLQSGVPSRFSGGGSGTDFTLTISSLQPEDFATYYCQETYSRTFGQGTKADIK
B5: 01.l.01 (protein)
chain 1: EVQLVESGGGLVQPGRSLRLSCAASGFTFHDYAMHWVRQVPGKGLEWVSSISWNSYRIGYADSVKGRFTISRDNAKNSLYLQMNSLRAEDTALYYCAKDPQGELIGGRFDPWGQGTLVTVSS
chain 2: DIQMTQSPSSLSASVGDRVTITCRASQSITTYLNWYQQKPGKAPKLLIHTASNLQSGVPSRFSGSGSGTDFTLTISSLQPEDFATYYCQQSYSTRFTFGPGTKVDIK
B6: 039-10-4G01 (protein)
chain 1: QVQLVQSGAEVKKPGASVKVSCKASGYTFSTYYIHWVRQAPGQGPEWMGIINPNGGTVAYARKFQGRVTMTRDTSTSTVYMDLRSLSSEDTAVYYCARDGREVPATTRKDYYYYYYMDIWGRGTTVTVSS
chain 2: DIVMTQSPDSLAVSLGERATINCKSSQSVFYSSNNKDDLAWYQQKPGQPPKLLIYWASTRGSGVPDRFSGSGSGTDFTLTISSLQAEDVAVYYCQQYYTTPPTFGGGTKVEIK
B7: antibody 1F04 (protein)
chain 1: VQLLESGGGLVQPGGSLRLSCAASGLTFSNYAMSWVRQAPGKGLEWVSVIYSSGSGTWYADSVKGRFTISRDNSKNTLYLQMISLRAEDTAVYYCAKDRIAGSWVDAFDMWGQGTMVTVSS
chain 2: DIQMTQSPSSLSASVGDRVTVTCQASQDFSNSLNWYQQKPGKAPKLLIYGASNLETGVPSRFSGSGSGTHYTFTINSLQPEDIATYYCQQFKAFGQGTKVEIK
B8: R95-1D02 (protein)
chain 1: QVQLQESGPGLVKPSETLSLTCTVSGDSVSDNFWTWIRQPPGKALEWIGYMYYSGSIKYNPSLKSRVTMSLDTSKNQFSLELTSVTAADTAVYYCARATTWGAPEFDYWGQGTLVTVSS
chain 2: DIQMTQSPSSLSASVGDTVTITCRASQSINFYLNWYQQKPGRAPNLLISSASILQSGVPSRFSGSGSGTGFTLTISSLQPEDFATYFCQQSYSSPYTFGQGTKLETK
B9: S5V2-52-Ig (protein)
chain 1: SGPGLVKPSETLSLTCTVSGDSVNNKIYYWSWIRQTAGRGLEWIGSLSASGSSNYNPSLKSRVTILLHTSENQFSLKLTSVTAADTAVFYCARGGIEDLFLGTSNQRIWYFDVWGRGTQVTVSS
chain 2: SASVGDRVTITCRASQSIGDSLNWYQQKSGRAPNLLMYAASNLQSGVPSRFSGSGSGTDFTLTISSLQPEDFAIYYCQHQVSFGRGTKLEI
B10: W85-2G05 (protein)
chain 1: LVQPQESGPGLVKPSETLSLTCSVSGDSMYDYYWSWIRQPPGKGLEWIGCIHYSGSTNYNPSLKSRVTISVDTSKNQFSLKLSSVTAADTALYYCATGRSSNSGWYPYFYYGLDVWGQGTTVTVSS
chain 2: QSALTQPPSASGTPGQRVTISCSGSSSNIGENYVYWYQLFPGTAPKLVIYRSDQRPSGVPDRFSGSKSGTSASLVISGLRSEDEADFYCATWDDSLSGSWVFGGGTKLTV
B11: R95-2F07 (protein)
chain 1: EVQLVESGGGLVQPGRSLRLSCAASGFSFDDYAMHWVRQTPGKGLEWVSGISWNSGSIGYADSVKGRFTISRDNAKNSLYLQMNSLRAEDTALYYCTKDMNRGCDSINCYNYYYYYYGMDVWGQGTTVTVSS
chain 2: QSVLTQPPSVSGAPGQRVTISCTGSSSNIGAGYDVHWYQQLPGTAPKLLIYGNTNRPSGVPDRFSGSQSGTSASLAITGLQAEDEADYYCQSYDSSLSGSLFGGGTKLTV
B12: AG12-3D05 (protein)
chain 1: VQLVESGAEVKKPGESLRLSCQASGYNFTDSWISWVRQVPGKGLEWMGRIDPEDSYTNYSPSFQGRVTISADTSITTAYVQWRSLRPSDTAIYFCGRYSVGRKADYWGQGTLVTVSS
chain 2: DIVMTQSPLSQPVTLGQPASISCRSSQSLVYTDGNIYLNWFQQRPGQAPRRLIYKVFNRDSGVPDRFSGSGSGTDFTLKISRVEAEDVGVYYCMQGTHWPYTFGQGTKVEIK
B13: AG13-3E04 (protein)
chain 1: VQLLESGGGLVQPGGSLRLSCTASGFTFNNYAMNWVRQAPGKGLEWVSSLSGGGRNIYYADSVKGRFTISRDNFKNTVYLQMNSLRAEDTAIYYCAKPAPMMVVVKNWFDTWGQGTLVTVSS
chain 2: EIVMTQSPATLSVSPGERATLSCRASQSVSANLAWYQQKPGQTPRLLIYDASTRATGIPARFSGSGSGTHFTLTISSLQSEDFAIYYCQQYKDWPPWTFGQGTKVEIK
B14: K77-2D08 (protein)
chain 1: EVQLVESGGGVVQPGGSLRLSCAASGFSFSSHDMHWVRQAPGKGLEWVAFIRYDGSNEYYADSAEGRFAVSRDNSKNTLSLQLNSLRSDDTAVYYCANAADEWGGGLQHDYWGPGTLVIVSS
chain 2: QSALTQPASVSGSPGQSITISCTGGSFDVGGYNYISWYQQHPGKAPRLIIYGVTKRPSGVSTRFSASKSGATASLTISGLQAEDEAEYHCSSYTASTTWVFGGGTKLTV
B15: C1-3A03 (protein)
chain 1: QLQLQESGPGLVKPSETLSLTCTVDGGSISSSSYYWDWIRQPPGKGLEWIGSIYYSGETYHNPSLKTRVTTSVDTSKNQFSLRLSSVTAADTAVYYCARRCGGYQYYYGMDVWGQGTTVTV
chain 2: EIVMTQSPATLSVSPGERATLSCRVSQSVIRDLAWYQQKPGQAPRLLIYGASTRATGIPARFSGSGSGTEFTLTISSVHSEDFAVYYCQQYNNWAPITFGQGTRLEIK
B16: AG13-3B01 (protein)
chain 1: VQLVESGGGLVKPGGSLRLSCAASGFTFSDYYMTWIRQAPGKGLEWVSYIDSWSTYTDYPDSVKGRFTVSRDNAKNSLYLQMNSLRADDTAVYFCARDRGDCSRTTCSFDSWGQGTLVTVSS
chain 2: EIVMTQSPATLSVSPGERATLSCRASQSVSSYLAWYQQKPGQAPRLLIYGASTRATGIPARFSGSGSGTEFTLTISSLQSEDFGIYYCQQYSDWPLTFGGGTKVEIK
B17: R95-1C11 (protein)
chain 1: LVQLKESGPGLLRPSETLFLTCSVSGGSIRDTSYFWGWVRQPPGKGLEWIGNVYYSGTTYYKPSLKSRVTISVDTSKNQFSLNLSSVTAADTAVYYCASLHTVAPSFWGQGTLVTVSS
chain 2: SYELTQPPSVSVSPGQTASITCSGNKLGDKFVCWFQQKPGQSPVVVIYQDTMRPSGIPERFSGSNSGNTATLTISGTQAMDEGDYYCQVWDSSTVVFGGGTKLTVL
B18: R95-1F02 (protein)
chain 1: EVQLLESGGGLVQPGGSLRLSCAASGFTFSSCAMTWVRRAPGKGLEWVSAISAGGGSTWYADSVKGRFTISRDNSKNTLYLQMNGLRAEDTAVYYCAKDLLHWYFDLWGRGTLVTVSS
chain 2: EIVLTQSPATLSLSPGEGATLSCRASQSVSSYLAWYQQKPGQAPRLLIYDASNRATGIPARFSGSGSGTDFTLTISSLEPEDFAVYYCQQRRNWPLTFGGGTKVEIK
B19: W85-2C10 (protein)
chain 1: EVQLVESGGGVVQPGRSLRLSCAASGSTFSDRAMHWVRQAPGRGMEWIGFILFHGTNNYHADSVKGRFTISRDNSKNTLYLQMNSLRTEDTAMYYCARDRGAAVVDLTAEAFDLWGQGTMVTVSS
chain 2: DIQMTQSPSSLSASVGDRVTITCRASQGIRNWLAWYQQKPGKAPRSLIYAASTLQSGVPSRFIGSGSGTDFTLTIRGLQPEDFATYFCQQYDSYPLTFGGGTKVEI

The first assay has as its target H1 HA stem construct (mini-HA #4900). Kind of assay: mRNA display binding score; higher = more enriched on the antigen. The following applies: antigen blocked with: nothing. Here is the method: (§1)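 A pool of natively paired antibodies, displayed as scFv on mRNA, was selected once on antigen-coated beads and sequenced before and after; two replicates.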
Turning to B1, the “mRNA display binding score” value is inactive: 0.859.
Turning to B2, the “mRNA display binding score” value was inactive: -0.279.
With B3, the “mRNA display binding score” value is inactive: 1.88.
Take B4: the “mRNA display binding score” value was inactive: 1.45.
Consider B5, for which the “mRNA display binding score” value was inactive: 1.21.
The same measure, in the same setting: the result for B6 reads inactive: -0.177; that for B7, inactive: -0.594; that for B8, inactive: 5.68.
B9: the “mRNA display binding score” value is inactive: -0.617.
In the case of B10, the “mRNA display binding score” value is inactive: 0.842.
The same measure, in the same setting: the value for B11 was inactive: -0.000898; that for B12 was inactive: 0.0706.
Same read-out and setting: the result for B13 reads inactive: 0.178; that for B14, inactive: -0.0667.
Regarding B15, the “mRNA display binding score” value is inactive: -0.0323.
On to B16, for which the “mRNA display binding score” value is inactive: 0.842.
With B17, the “mRNA display binding score” value was inactive: -0.985.
Still for that read-out and setting: the result for B18 reads inactive: 2.36; that for B19, inactive: 0.166.

The next assay deals with H3 HA stem construct (H3ssF). The description is as above. To be noted: antigen blocked with: nothing. Here is the method: as §1
Turning to B1, the “mRNA display binding score” value was inactive: -0.153.
The same measure, in the same setting: the value for B2 was inactive: 0.429.
In the case of B3, the “mRNA display binding score” value was inactive: 2.04.
Consider B4, for which the “mRNA display binding score” value was inactive: 6.48.
As for B5, the “mRNA display binding score” value is inactive: 2.38.
Consider B6, for which the “mRNA display binding score” value was inactive: 1.24.
Same read-out and setting: the value for B7 was inactive: 0.423.
Same read-out and setting: the value for B8 was inactive: 11.4; that for B9 was inactive: 0.299.
B10: the “mRNA display binding score” value is inactive: 5.08.
Turning to B11, the “mRNA display binding score” value was inactive: 0.755.
Regarding B12, the “mRNA display binding score” value is inactive: 0.117.
As for B13, the “mRNA display binding score” value is inactive: 0.46.
On to B14, for which the “mRNA display binding score” value was inactive: 2.88.
In the case of B15, the “mRNA display binding score” value was inactive: 4.74.
For B16, the “mRNA display binding score” value was inactive: 5.08.
For B17, the “mRNA display binding score” value was inactive: 2.74.
Turning to B18, the “mRNA display binding score” value was inactive: 8.75.
Take B19: the “mRNA display binding score” value is inactive: -0.111.
